# Residue numbers refer to the chain shown, from its start. The list shows a part of the results.
# B1: UACAUUG (DNA:RNA)
# RNA: GGGAGACCGGAAUUCAGAUUGUCCUACAUUGUUAAAUCCCGUCGUAGCCACCA
# DNA 1: CAATCTGAATTCCGGTCTCCC
# DNA 2: TGGTGGCTACGACGGGATT
# B2: AAAAUUG (DNA:RNA)
# RNA: B1 RNA with U25A, C27A
# DNA 1: CAATCTGAATTCCGGTCTCCC
# DNA 2: TGGTGGCTACGACGGGATT
# B3: AUUCUUU (DNA:RNA)
# RNA: B1 RNA with U25A, A26U, C27U, A28C, G31U
# DNA 1: CAATCTGAATTCCGGTCTCCC
# DNA 2: TGGTGGCTACGACGGGATT
# B4: GCAUCAG (DNA:RNA)
# RNA: B1 RNA with U25G, A26C, C27A, A28U, U29C, U30A
# DNA 1: CAATCTGAATTCCGGTCTCCC
# DNA 2: TGGTGGCTACGACGGGATT
# B5: CAUCACU (DNA:RNA)
# RNA: B1 RNA with U25C, C27U, A28C, U29A, U30C, G31U
# DNA 1: CAATCTGAATTCCGGTCTCCC
# DNA 2: TGGTGGCTACGACGGGATT
# B6: GAUUCUA (DNA:RNA)
# RNA: B1 RNA with U25G, C27U, A28U, U29C, G31A
# DNA 1: CAATCTGAATTCCGGTCTCCC
# DNA 2: TGGTGGCTACGACGGGATT
# B7: UAGGUGA (DNA:RNA)
# RNA: B1 RNA with C27G, A28G, U30G, G31A
# DNA 1: CAATCTGAATTCCGGTCTCCC
# DNA 2: TGGTGGCTACGACGGGATT
# B8: UGCUUGG (DNA:RNA)
# RNA: B1 RNA with A26G, A28U, U30G
# DNA 1: CAATCTGAATTCCGGTCTCCC
# DNA 2: TGGTGGCTACGACGGGATT
# B9: GCUCAAA (DNA:RNA)
# RNA: GGGAGACCGGAAUUCAGAUUGUCCGCUCAAAUUAAAUCCCGUCGUAGCCACCA
# DNA 1: CAATCTGAATTCCGGTCTCCC
# DNA 2: TGGTGGCTACGACGGGATT
# B10: GGCAUUG (DNA:RNA)
# RNA: B1 RNA with U25G, A26G
# DNA 1: CAATCTGAATTCCGGTCTCCC
# DNA 2: TGGTGGCTACGACGGGATT
# B11: UCGGUGG (DNA:RNA)
# RNA: B1 RNA with A26C, C27G, A28G, U30G
# DNA 1: CAATCTGAATTCCGGTCTCCC
# DNA 2: TGGTGGCTACGACGGGATT
# B12: AUGGUAG (DNA:RNA)
# RNA: B1 RNA with U25A, A26U, C27G, A28G, U30A
# DNA 1: CAATCTGAATTCCGGTCTCCC
# DNA 2: TGGTGGCTACGACGGGATT
# B13: CCAGUGG (DNA:RNA)
# RNA: B1 RNA with U25C, A26C, C27A, A28G, U30G
# DNA 1: CAATCTGAATTCCGGTCTCCC
# DNA 2: TGGTGGCTACGACGGGATT
# B14: GUGCAAU (DNA:RNA)
# RNA: B9 RNA with C26U, U27G, A31U
# DNA 1: CAATCTGAATTCCGGTCTCCC
# DNA 2: TGGTGGCTACGACGGGATT
# B15: UGUUCGC (DNA:RNA)
# RNA: B9 RNA with G25U, C26G, C28U, A29C, A30G, A31C
# DNA 1: CAATCTGAATTCCGGTCTCCC
# DNA 2: TGGTGGCTACGACGGGATT
# B16: UAGUUGU (DNA:RNA)
# RNA: B1 RNA with C27G, A28U, U30G, G31U
# DNA 1: CAATCTGAATTCCGGTCTCCC
# DNA 2: TGGTGGCTACGACGGGATT
# B17: AGACCUA (DNA:RNA)
# RNA: B9 RNA with G25A, C26G, U27A, A29C, A30U
# DNA 1: CAATCTGAATTCCGGTCTCCC
# DNA 2: TGGTGGCTACGACGGGATT
# B18: CCGAACC (DNA:RNA)
# RNA: B9 RNA with G25C, U27G, C28A, A30C, A31C
# DNA 1: CAATCTGAATTCCGGTCTCCC
# DNA 2: TGGTGGCTACGACGGGATT
# B19: GUGGAAG (DNA:RNA)
# RNA: B9 RNA with C26U, U27G, C28G, A31G
# DNA 1: CAATCTGAATTCCGGTCTCCC
# DNA 2: TGGTGGCTACGACGGGATT
# B20: GAACUGA (DNA:RNA)
# RNA: B9 RNA with C26A, U27A, A29U, A30G
# DNA 1: CAATCTGAATTCCGGTCTCCC
# DNA 2: TGGTGGCTACGACGGGATT
# Target: T1, RBFOX1 RRM (Homo sapiens, UniProt Q9NWB1 109-208)
# T1 sequence: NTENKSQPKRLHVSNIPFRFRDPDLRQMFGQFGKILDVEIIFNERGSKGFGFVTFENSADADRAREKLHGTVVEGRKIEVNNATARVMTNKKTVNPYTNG
# Assay: EMSA; HiTS-Eq, 1 nM pool, 10 min; buffer printed only for the single-RNA assays: 10 mM Tris pH 7.5, 150 mM NaCl, 3.4 mM EDTA, 0.001% NP-40, 30 C
# Details: tags: His6 N-terminal (pET28a); label: 5' 32P
# Method in brief: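 A pool of RNA with 7 randomized nucleotides, 5′-radiolabelled and with DNA-annealed flanks, was equilibrated at 1 nM for 10 min in 50 µL with purified RbFox RRM, wild type or mutant, across increasing protein concentrations. Free RNA was separated by 8% native PAGE, excised, reverse-transcribed, barcoded by PCR and sequenced. Relative association constants were obtained from read-count changes of each RNA species versus the control reaction and normalised to the cognate motif.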
row,Binder,binding signal
1,B1,0.0129 KA relative to UGCAUGU
2,B2,0.00682 KA relative to UGCAUGU
3,B3,0.00634 KA relative to UGCAUGU
4,B4,0.0121 KA relative to UGCAUGU
5,B5,0.000687 KA relative to UGCAUGU
6,B6,0.0118 KA relative to UGCAUGU
7,B7,0.011 KA relative to UGCAUGU
8,B8,0.0481 KA relative to UGCAUGU
9,B9,0.00443 KA relative to UGCAUGU
10,B10,0.0108 KA relative to UGCAUGU
11,B11,0.0215 KA relative to UGCAUGU
12,B12,0.0107 KA relative to UGCAUGU
13,B13,0.00601 KA relative to UGCAUGU
14,B14,0.0149 KA relative to UGCAUGU
15,B15,0.0256 KA relative to UGCAUGU
16,B16,0.0157 KA relative to UGCAUGU
17,B17,0.00181 KA relative to UGCAUGU
18,B18,0.00978 KA relative to UGCAUGU
19,B19,0.0171 KA relative to UGCAUGU
20,B20,0.0167 KA relative to UGCAUGU

# From article PMC9911399, “Two distinct binding modes provide the RNA-binding protein RbFox with extraordinary sequence specificity”
